In PubChem BioAssay AID1918946 (Molecular Pharmacology Branch, DTP, NCI, 2023):
For part of its entries the source gives two or more results. They are shown here; other results are not. There may be further records. Values given together are repeated measurements in other runs, samples, wells, individuals or studies. Additions like (4×) give the number of equal values in this list. A date in brackets names the month of the test.

Test system: 885512-296-R-J2-PDC complex spheroid viability
Test: Anticancer human tumor 885512-296-R-J2-PDC patient-derived breast carcinoma cell line growth inhibition
Settings: stronger effect = lower value
Excerpt: Multicellular complex tumor spheroid response to LSD1 Inhibitor Iadademstat in combination with a variety of drugs and investigational agents in selected tumor cell lines
The current study was undertaken to assess response to LSD1 inhibitors in combination with standard-of-care drugs and investigational agents in solid tumor complex spheroid models as well as in the K-562 leukemia. Complex spheroids include a stromal component modeled by human endothelial cells (HUVEC) and fibroblasts modeled by human mesenchymal stem cells (MSCs). The concentration ranges selected for each drug and investigational agent were based upon clinically achievable concentrations if the clinical Cmax of the agent was known.
Compounds. The drugs and investigational agents used in this study are listed on Table 1. All of the agents used, including staurosporine (NSC755774) and gemcitabine (NSC613327), were obtained from the Developmental Therapeutics Program, NCI. FDA-approved anticancer drugs are available from the NCI at http://dtp.nci.nih.gov/branches/dscb/oncology_drugset_explanation.html. Drugs and investigational agents were >95% pure by proton nuclear magnetic resonance (NMR) and liquid chromatography/mass spectrometry (LC/MS). Stock solutions were prepared at 400x in DMSO, stored at -70 degrees C, and diluted in fresh medium prior to their use. The final concentration of DMSO in cell culture wells never exceeded 0.25% (v/v). The FDA-approved anticancer drug set is available from the Developmental Therapeutics Program at https://dtp.cancer.gov/organization/dscb/obtaining/available_plates.htm. All drugs and investigational agents were tested over a range starting from a high concentration at or near the clinical Cmax and decreasing in half-log increments. If the clinical Cmax for an agent had not been determined, the highest concentration tested was 10 microM.
Cell Lines. The patient-derived cancer cell (PDC) lines: 292921-168-R-J2-PDC, K24384-001-R-PDC, and 521955-158-R2-J5-PDC pancreatic carcinomas, 556581-035-R-J1 ovarian carcinoma, 324938-238-R-J1-PDC, 855422-203-R-J1-PDC and 883617-216-R-J1-PDC urothelial bladder carcinomas, 743489-274-T-PDC renal cell carcinoma, 138582-R-J1 Merkel cell tumor, K60290-347-R-J1 and K57222-313-R-J1-PDC glioblastomas, 653999-131-R-J2-PDC, LG0703-F948-PDC, and 349418-098-R-PDC non-small cell lung carcinomas, 885512-296-R-J2-PDC, 171881-019-R-J1-PDC breast carcinomas and 186277-243-T-J2-PDC and 233499-124-R-J2-PDC colon carcinomas were obtained from the NCI Patient-Derived Models Repository (PDMR, https://pdmr.cancer.gov). The established cell lines NCI/ADR-RES (RRID:CVCL_14520 and OVCAR-5 (RRID:CVCL_1628) ovarian carcinomas, 786-O (RRID:CVCL_1051) and A498 (RRID:CVCL_A498) renal cell carcinoma, NCI-H211 (ATCC, cat. CRL-5824; RRID:CVCL_1529), NCI-H196 (ATCC, cat. CRL-5823, RRID:CVCL_1509), SW 1271 (ATCC, cat. CRL-2177, RRID:CVCL_1716) and NCI-H1876 (ATCC, cat. CRL-5902, RRID:CVCL_1503) small cell lung carcinomas, MDA-MB-231 (RRID:CVCL_0062) and MDA-MB-468 (RRID:CVCL_0419)breast carcinomas (10-12). Pooled donor human umbilical vein endothelial cells (HUVEC, Lonza, cat. CC-2519) and human mesenchymal stem cells (hMSC, Lonza, cat. PT-2501) were purchased from Lonza (Walkersville, MD).
Cell Culture. All cells were maintained in an incubator at 37 degrees C and 5% CO2 with 95% humidity. The PDC lines were cultured according to standard operating procedures established by the NCI PDMR (https://pdmr.cancer.gov). Briefly all PDCs were thawed and cultured in Matrigel-coated flasks prepared with a working solution of 1X Ham's F-12 nutrient mix, without supplementation (Invitrogen, Waltham, MA, cat. 11765054), 100 U/mL penicillin-streptomycin (Invitrogen, cat. 15140122), and 2.5% Matrigel (Corning Inc., Corning, NY, cat. 354248) for the first three passages. […]
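Note: spheroids exposed to agents for 7 days before viability read.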

Row | Compound | viability, T/C (compound alone 0.1 µM) | viability, T/C (compound alone 1 µM) | viability, T/C (compound alone 3.16 µM) | viability, T/C (compound alone 10 µM) | viability, T/C (compound alone 0.316 µM) | viability, T/C (compound alone 0.00316 µM) | viability, T/C (compound alone 0.001 µM)
1 | NC1CCC(NC2CC2c2ccccc2)CC1 (stereo not given) | 115, 120 (4×), 124, 119, 142, 126 (2×), 108, 129 (2×), 136, 138, 135, 141, 109, 121 (2×), 112, 143, 128, 125% | 112, 121, 101, 122, 106 (2×), 136, 131, 127 (2×), 135, 162, 139, 119 (2×), 117, 113, 96.3, 114, 116, 133, 111, 115, 143, 109% | 116 (2×), 98.2, 122, 100, 123 (2×), 117, 129 (3×), 124, 111 (2×), 133, 125 (2×), 144, 101, 120, 103, 113, 118, 107, 109% | 100, 81.5, 85.3, 94.5, 98.5, 104 (3×), 99.3, 98.2, 123, 95.8, 106, 97.8, 81, 82.3, 91.2, 95.5 (2×), 90.6, 86, 114, 83.7% | – | – | –
2 | NC1CC1c1ccc(-c2cccc(O)c2)cc1 (stereo not given) | – | 122, 131 (3×), 116, 136, 107, 140 (2×), 108, 117 (3×), 138 (2×), 114 (2×), 120, 113 (2×), 91.8, 134 (2×), 119% | 119 (3×), 120, 106, 115 (2×), 89.9, 123, 121, 110 (2×), 126, 132, 116, 134, 104 (2×), 109, 107, 63.8, 111, 135, 114, 128% | 89.8, 95, 83.8, 89.1, 71.5, 85.2, 93.7 (2×), 89.9, 83.9, 91.2, 75.7, 87.3, 81.2, 83.5, 76.6, 86.4, 83.7, 54.4, 88.3, 87.7, 84.1, 104, 82.4, 80.6% | 135, 119 (2×), 118, 133, 110 (2×), 134, 142, 136, 108, 127, 143, 123, 128, 129, 111, 113, 109, 95.6, 124, 122, 100, 149, 131% | – | –
3 | CC1COCCN1c1cc(-c2ccnn2C)c2ccnc(-c3ccn[nH]3)c2n1 (stereo not given) | – | – | – | – | – | 32% [2022-01] and 3.08% [2022-02] | –
4 | CC(C)CC(NC(=O)C(Cc1ccccc1)NC(=O)c1cnccn1)B(O)O (stereo not given) | – | – | – | – | – | – | 43.7% [2022-01] and 0.71% [2022-02]
